# Reference: PubChem BioAssay AID588501 (NMMLSC, 2011)
# Hit rate of the full screen: of about 360,000 compounds, about 420 (0.12%) were called active. The shares of active, inactive and inconclusive entries below differ from those in the screen. Rule as the data show it: active = inhibition above about 30%; inconclusive = no clear call, values can overlap the other calls; inactive = below that.
# Target: Lethal factor (Bacillus anthracis) (UniProt P15917)
# Assay: anthrax lethal factor cleavage blockers – biochemical, multiplex microsphere, MLPCN library, primary screen (AID 588501); also: plate controls were buffer without enzyme for full effect and enzyme alone for no effect
# Conditions: multiplex microsphere protease cleavage assay, LF; at 10 µM; stronger effect = higher value
row,SMILES,inhibition
1,COc1cc(NC(=O)COC(=O)CSc2cc(C)ccc2C)c(C)cc1[N+](=O)[O-],inactive: -0.6%
2,CCc1c(C)nc(SCC(=O)N2CC(C)OC(C)C2)[nH]c1=O (stereo unspecified),inconclusive: 0.9%
3,CCOC(=O)c1ccc(N2C(=O)c3n[nH]c(-c4ccco4)c3C2c2cccc([N+](=O)[O-])c2)cc1 (stereo unspecified),inactive: -6.4%
4,Cc1cc(C)c(Cn2cnc(-c3ccc([N+](=O)[O-])cc3)c2)c(C)c1,inactive: -2.7%
5,CC(C(=O)c1ccc(-c2ccccc2)cc1)[n+]1cccc(NC(=O)c2ccccc2)c1 (stereo unspecified),inconclusive: -6.3%
6,Cc1cccc(S(=O)(=O)C(C#N)c2nc3ccccc3nc2N2CC(C)OC(C)C2)c1 (stereo unspecified),inactive: 0.3%
7,COc1ccc(NC(=O)CN(C)C(=O)CNC(=O)c2ccc3c(c2)OCO3)cc1,inconclusive: 4.9%
8,Cc1ccccc1Nc1nc(N)nc(COC(=O)CCS(=O)(=O)c2ccc(Cl)cc2)n1,inconclusive: -1.8%
9,CN(C)c1nc2c(c(=O)[nH]c(=O)n2C)n1Cc1ccccc1Br,inconclusive: 8.4%
10,Cc1cc(N/N=C/c2ccc(F)cc2)nc(NCc2ccccc2)n1,inconclusive: 8.1%
11,COc1ccc(-n2c(O)c(/C(C)=N/N3CCCCCC3)c(=O)[nH]c2=O)cc1,inconclusive: -28.3%
12,Cc1ccccc1NC(=O)Cc1nc(COC(=O)c2ccc(Cl)nc2)cs1,inconclusive: 2.4%
13,Cc1c(C(C)NC(=O)Nc2ccc(F)cc2F)cnn1C (stereo unspecified),inconclusive: -1.1%
14,Cc1cc(Br)cc(Br)c1OCC(=O)NNC(=O)Nc1ccccc1,inconclusive: -0.4%
15,Cc1cccc(NC(=S)N/N=C/c2ccc([N+](=O)[O-])s2)c1,active: 52.5%
16,CC(C(=O)Nc1ccc(O)cc1C(=O)O)N1C(=O)/C(=C\c2cccs2)SC1=S (stereo unspecified),inconclusive: -6.4%
17,CN(CC(=O)Nc1ccc(F)c(F)c1F)C(=O)CCCSc1nc2ccccc2[nH]1,inconclusive: 5.3%
18,CCN1CCc2c(sc(NC(=O)c3ccc(S(=O)(=O)N4CCCC4)cc3)c2C(=O)NC)C1,inconclusive: 1.6%
19,CC(C)c1noc2ncc(C(=O)c3cc(Cl)cc(Cl)c3O)cc12,inactive: -0.8%
20,Cc1ccc(N2C(=O)CS(=O)(=O)CC2=O)cc1,inactive: 0.7%
21,Cc1ccc(C)c(NC(=O)CN(C)C(=O)c2cccc(-n3cccc3)c2)c1,inconclusive: 1.6%
22,CN1/C(=C\C(=O)COC(=O)CNC(=O)c2ccc3ccccc3c2)C(C)(C)c2ccccc21,inconclusive: 4.3%

row,SMILES,inhibition
1,O=c1c(Sc2ccccc2)c(C(F)(F)F)[nH]n1-c1ccccc1,inconclusive: -30.5%
2,Cc1cc(C)c(S(=O)(=O)N2CCN(C(=O)c3ccc(-n4cncn4)c([N+](=O)[O-])c3)CC2)c(C)c1,inconclusive: 17.5%
3,CCC1Cc2[nH][nH]c(=O)c2C(CC)O1 (stereo unspecified),inactive: 2.8%
4,CCc1noc(C)c1C(=O)Nc1cc(S(=O)(=O)N2CCCCC2)ccc1N(C)C,inconclusive: -1.1%
5,O=C(CCCn1cncn1)N1CCCC(Nc2ccc(F)cc2)C1 (stereo unspecified),inconclusive: -1.9%
6,COCCn1c(N)c(N(Cc2ccccc2)C(=O)C2=COCCO2)c(=O)[nH]c1=O,inconclusive: 1.1%
7,Cc1cc2ccccc2n1CCNC(=O)C(C)C,active: 59.5%
8,Cc1ccnc(NS(=O)(=O)c2ccc(NC(=O)c3c(-c4ccccc4Cl)noc3C)cc2)n1,inconclusive: 0.3%
9,CCCCCc1nc(-c2nonc2N)no1,inactive: -5.6%
10,O=c1oc2ccccc2cc1-c1nc(-c2cccs2)cs1,active: 40.7%
11,COCCNc1nnc(SCC(=O)NC(=O)c2ccccc2)s1,inconclusive: 7.1%
12,COC(=O)C(Cc1c[nH]c2ccccc12)NC(=O)c1ccc2nc[nH]c2c1 (stereo unspecified),inconclusive: -1.5%
13,CCn1c(N2CCN(CC(=O)c3c(C)n(C)c4ccc(OC)cc34)CC2)nc2c1c(=O)[nH]c(=O)n2C,inconclusive: 7.2%
14,CN(Cc1ccccc1F)C(=O)c1cccc(NC(=O)CC2SC(N3CCCCC3)=NC2=O)c1 (stereo unspecified),inconclusive: -2.7%
15,CCc1ccc(N2CN(CCc3ccccc3)CNC2=S)cc1,inconclusive: -6.4%
16,O=C(Cc1c(F)cccc1Cl)NNC(=O)c1ccco1,inactive: -5.2%
17,Cc1cc(Sc2nnc(/N=C/N(C)C)s2)c2ccccc2n1,inconclusive: 8.4%
18,O=C(NC1CCCCC1)c1cccc2c1C(=O)c1ccc(N3CCC(Cc4ccccc4)CC3)cc1S2(=O)=O,active: 34.1%
19,COc1ccc(NC(=O)CN(C)CC(=O)N2CCCCCC2)cc1,inconclusive: 2%
20,Cc1cc(S(=O)(=O)NC2CCCC2)ccc1-n1cnnn1,active: 35.6%
21,O=C1/C(=C\c2cccs2)N=C(c2cccs2)N1Nc1ccccc1,active: 50.1%
22,Cc1sc(-c2ccccn2)nc1OC(=O)c1cccc(Cl)c1Cl,inconclusive: 2.2%

row,SMILES,inhibition
1,CCN(CC)C(=O)C1CCCN(Cc2ccc(N(C)C)cc2)C1 (stereo unspecified),inconclusive: -20.5%
2,CCc1cccc2c(C(=O)CN3C(=O)NC4(CCc5ccccc54)C3=O)c[nH]c12 (stereo unspecified),inconclusive: -0.5%
3,Cn1ncc(Oc2ccc([N+](=O)[O-])cc2)c(Cl)c1=O,inconclusive: -18%
4,CC(C)c1c(O)nc(SCCN(C)C)[nH]c1=O,inconclusive: -17.4%
5,O=c1c2c3c(sc2n(CCN2CCOCC2)c(=O)n1Cc1ccco1)CCCCC3,inconclusive: -12.1%
6,Cc1ccc2c(CC(=O)N(CC3CCCO3)c3c(N)n(Cc4ccccc4)c(=O)[nH]c3=O)coc2c1 (stereo unspecified),inconclusive: -0.4%
7,CCN(CC)S(=O)(=O)c1ccc(NC(=O)CSc2cccc[n+]2[O-])cc1,inactive: -3.4%
8,COc1ccc(S(=O)(=O)N2CCOC2CNC(=O)C(=O)NCCN2CCOCC2)cc1 (stereo unspecified),inconclusive: -0.6%
9,CCCCN(C(=O)c1ccc([N+](=O)[O-])s1)c1c(N)n(CC(C)C)c(=O)[nH]c1=O,inconclusive: -4%
10,O=C(CCN=C1NS(=O)(=O)c2ccccc21)OCc1ccccc1,inconclusive: -0.5%
11,Cc1cc(C)c(OCC(=O)OCC(=O)NC2CCC(C)CC2)c(C)c1 (stereo unspecified),inconclusive: 2.3%
12,CC(OC(=O)CCC(=O)c1ccccc1)C(=O)Nc1ccc(F)cc1 (stereo unspecified),inconclusive: -2.6%
13,CCOc1ccc(-n2ccnc(SCC(=O)Nc3cccc(OC)c3)c2=O)cc1,inconclusive: -0.7%
14,O/C(=C\c1nc2ccccc2nc1/C=C(\O)c1ccccc1)c1ccccc1,active: 30.5%
15,COc1cccc(N2C(=O)[C@H]3C(C(=O)c4cnccn4)=NN[C@H]3C2=O)c1,inactive: 3.5%
16,O=C(CNc1cc(S(=O)(=O)N2CCOCC2)ccc1NCC1CCCO1)Nc1cccc(F)c1 (stereo unspecified),inconclusive: -0.8%
17,CCOc1ccccc1NC(=O)CCNS(=O)(=O)c1cccc2nonc12,inactive: 1.8%
18,COC(=O)COc1ccc2c(=O)c(-c3ccccc3)coc2c1,inconclusive: -9.9%
19,CCCCn1c(N)c(N(CC(C)C)C(=O)C2=NN(c3cc(C)ccc3C)C(=O)CC2)c(=O)[nH]c1=O,inconclusive: -2.2%
20,COCCCNC(=O)C(C#N)c1nc2ccccc2nc1N1CCCC1 (stereo unspecified),inconclusive: -20.1%
21,CCOC(=O)CCCNC(=O)c1cncc(Br)c1,inconclusive: -27.4%
22,Clc1nnc2ccc(-c3ccccc3)nn12,inconclusive: -15.3%

row,SMILES,inhibition
1,CC(=O)OCCN(CCCn1c(-c2ccncc2)nc2ccccc21)c1nc(-c2ccc(C)cc2)cs1,active: 41.1%
2,CCn1c2ccccc2c2cc(NC(=O)c3ccc(Br)o3)ccc21,active: 43.3%
3,O=C(CCCc1ccccc1)Nc1ccc(Br)cc1F,active: 32%
4,O=C(Nc1ccc(C#Cc2ccccc2)cc1)C1CC1,inconclusive: -26.6%
5,O=C(Nc1nc2c(s1)CN(Cc1ccccc1)CC2)c1cccc(S(=O)(=O)N2CCc3ccccc32)c1,active: 30.2%
6,CCOC(=O)c1c(C)[nH]c(C(=O)COC(=O)C2CC2)c1C,inconclusive: -0.3%
7,Cc1ccc(NC(=O)CN(C(=O)N2CCN(C)CC2)S(=O)(=O)c2ccc(C)cc2)cc1,inconclusive: 4.9%
8,Cc1ccc(CNS(=O)(=O)CCNC(=O)c2ccccc2)cc1,inconclusive: -4.6%
9,CCOC(=O)c1c(C)nn(-c2ccc(NC(=O)/C=C/C(=O)O)cc2)c1C,inconclusive: -14.9%
10,COc1ccc(-c2nc(C#N)c(N3CCC(C(N)=O)CC3)o2)cc1OC,inconclusive: 18.3%
11,CCn1nc(C)c(/C=N/NC(=O)c2nc3nc(C)cc(C)n3n2)c1C,active: 34.3%
12,O=C(NN=C1CCCC1)c1[nH]c2ccc(Cl)cc2c1-c1ccccc1,inconclusive: -5.5%
13,CCCCCn1cnnc1SCC(=O)c1c(N)n(C2CC2)c(=O)[nH]c1=O,inconclusive: -2.9%
14,COc1ccc(C2c3ccc4ccccc4c3Oc3ncn(CCCO)c(=N)c32)cc1 (stereo unspecified),inconclusive: -4.6%
15,CSc1sc(C(=O)NN)c2c1C1(CCC2)SCCS1,inconclusive: 0.2%
16,Cc1ccc(-n2ncc3c(N4CCCC4)ncnc32)c(C)c1,inconclusive: -23.1%
17,NC(=O)C1CCN(c2oc(-c3ccccc3)nc2S(=O)(=O)c2ccc(Br)cc2)CC1,inconclusive: -4.1%
18,Cc1cc(=O)[nH]c(NC(=O)Cc2ccccc2)n1,inactive: -0.1%
19,CC(=O)Nc1ccc(S(=O)(=O)NCCC(=O)OCc2csc(CC(=O)Nc3ccccc3C)n2)cc1,inconclusive: 0.7%
20,Cc1sc2nc(C3CC3)nc(SCC(=O)N3c4ccccc4CC3C)c2c1C (stereo unspecified),inconclusive: -55.2%
